This is one part of the list.
What was measured:
Assay in all cases: glycan array binding signal (z-score within array); higher = stronger binding
Conditions in all cases: glycan notation: IUPAC condensed, linker removed
[1] = target: GalNAc(b1-6)GalNAc
Summary of the method: (§1)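 Negative Z-scores can be read as non-binding. The Z-score is calculated within each array and then averaged across arrays of one protein sequence at different concentrations or buffers and across linkers. Arrays, 3228 in all, were curated from the Consortium for Functional Glycomics database and kept only where the protein sequence was available.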

[2] = target: Glc(a1-4)Glc
Summary of the method: as §1

[3] = target: Glc(a1-4)Glc(a1-4)Glc(a1-4)Glc
Summary of the method: as §1

[4] = target: Glc(a1-6)Glc(a1-6)Glc
Summary of the method: as §1

[5] = target: Glc(a1-6)Glc(a1-6)Glc(a1-6)Glc
Summary of the method: as §1

[6] = target: Glc(b1-4)Glc
Summary of the method: as §1

[7] = target: Glc(b1-6)Glc
Summary of the method: as §1

[8] = target: GlcA(b1-3)Gal
Summary of the method: as §1

[9] = target: GlcA(b1-3)GlcNAc
Summary of the method: as §1

[10] = target: GlcA(b1-6)Gal
Summary of the method: as §1

[11] = target: GlcNAc(a1-3)Gal(b1-4)GlcNAc
Summary of the method: as §1

[12] = target: GlcNAc(a1-4)Gal(b1-3)GlcNAc
Summary of the method: as §1

[13] = target: GlcNAc(a1-4)Gal(b1-4)GalNAc
Summary of the method: as §1

[14] = target: GlcNAc(a1-4)Gal(b1-4)GlcNAc
Summary of the method: as §1

[15] = target: GlcNAc(a1-4)Gal(b1-4)GlcNAc(b1-3)Gal(b1-4)Glc
Summary of the method: as §1

[16] = target: GlcNAc(a1-4)Gal(b1-4)GlcNAc(b1-3)Gal(b1-4)GlcNAc
Summary of the method: as §1

[17] = target: GlcNAc(a1-4)Gal(b1-4)GlcNAc(b1-3)Gal(b1-4)GlcNAc(b1-3)Gal(b1-4)GlcNAc
Summary of the method: as §1

[18] = target: GlcNAc(a1-4)Gal(b1-4)GlcNAc(b1-3)Gal(b1-4)[Fuc(a1-3)]GlcNAc(b1-3)Gal(b1-4)[Fuc(a1-3)]GlcNAc
Summary of the method: as §1

[19] = target: GlcNAc(a1-6)Gal(b1-4)GlcNAc
Summary of the method: as §1

[20] = target: GlcNAc(b1-2)Gal(b1-3)GalNAc
Summary of the method: as §1

[21] = target: GlcNAc(b1-2)Man(a1-3)[GlcNAc(b1-2)Man(a1-6)]Man(b1-4)GlcNAc(b1-4)GlcNAc
Summary of the method: as §1

[22] = target: GlcNAc(b1-2)Man(a1-3)[GlcNAc(b1-2)Man(a1-6)]Man(b1-4)GlcNAc(b1-4)[Fuc(a1-6)]GlcNAc
Summary of the method: as §1

[23] = target: GlcNAc(b1-2)Man(a1-3)[GlcNAc(b1-4)][GlcNAc(b1-2)Man(a1-6)]Man(b1-4)GlcNAc(b1-4)GlcNAc
Summary of the method: as §1

[24] = target: GlcNAc(b1-2)[GlcNAc(b1-4)]Man(a1-3)[GlcNAc(b1-2)Man(a1-6)]Man(b1-4)GlcNAc(b1-4)GlcNAc
Summary of the method: as §1

[25] = target: GlcNAc(b1-2)[GlcNAc(b1-4)]Man(a1-3)[GlcNAc(b1-4)][GlcNAc(b1-2)Man(a1-6)]Man(b1-4)GlcNAc(b1-4)GlcNAc
Summary of the method: as §1

[26] = target: GlcNAc(b1-2)[GlcNAc(b1-4)]Man(a1-3)[GlcNAc(b1-4)][GlcNAc(b1-2)[GlcNAc(b1-6)]Man(a1-6)]Man(b1-4)GlcNAc(b1-4)GlcNAc
Summary of the method: as §1

[27] = target: GlcNAc(b1-2)[GlcNAc(b1-6)]Man(a1-6)[GlcNAc(b1-2)Man(a1-3)]Man(b1-4)GlcNAc(b1-4)GlcNAc
Summary of the method: as §1

[28] = target: GlcNAc(b1-2)[GlcNAc(b1-6)]Man(a1-6)[GlcNAc(b1-2)Man(a1-3)][GlcNAc(b1-4)]Man(b1-4)GlcNAc(b1-4)GlcNAc
Summary of the method: as §1

[29] = target: GlcNAc(b1-3)Gal
Summary of the method: as §1

[30] = target: GlcNAc(b1-3)Gal(b1-3)GalNAc
Summary of the method: as §1

[31] = target: GlcNAc(b1-3)Gal(b1-4)Glc
Summary of the method: as §1

[32] = target: GlcNAc(b1-3)Gal(b1-4)GlcNAc
Summary of the method: as §1

[33] = target: GlcNAc(b1-3)Gal(b1-4)GlcNAc(b1-3)Gal(b1-4)GlcNAc
Summary of the method: as §1

[34] = target: GlcNAc(b1-3)GalNAc
Summary of the method: as §1

[35] = target: GlcNAc(b1-3)Man
Summary of the method: as §1

[36] = target: GlcNAc(b1-3)[GlcNAc(b1-4)][GlcNAc(b1-6)]GlcNAc
Summary of the method: as §1

[37] = target: GlcNAc(b1-3)[GlcNAc(b1-6)]Gal(b1-4)GlcNAc
Summary of the method: as §1

[38] = target: GlcNAc(b1-3)[GlcNAc(b1-6)]GalNAc
Summary of the method: as §1

[39] = target: GlcNAc(b1-4)Gal(b1-4)GlcNAc
Summary of the method: as §1

[40] = target: GlcNAc(b1-4)GlcNAc
Summary of the method: as §1

[41] = target: GlcNAc(b1-4)GlcNAc(b1-4)GlcNAc
Summary of the method: as §1

[42] = target: GlcNAc(b1-4)GlcNAc(b1-4)GlcNAc(b1-4)GlcNAc(b1-4)GlcNAc
Summary of the method: as §1

[43] = target: GlcNAc(b1-4)GlcNAc(b1-4)GlcNAc(b1-4)GlcNAc(b1-4)GlcNAc(b1-4)GlcNAc
Summary of the method: as §1

[44] = target: GlcNAc(b1-4)[GlcNAc(b1-6)]GalNAc
Summary of the method: as §1

[45] = target: GlcNAc(b1-6)Gal(b1-4)GlcNAc
Summary of the method: as §1

[46] = target: GlcNAc(b1-6)GalNAc
Summary of the method: as §1

[47] = target: GlcNAc3Prop(b1-4)GlcNAc
Summary of the method: as §1

[48] = target: GlcNAc6S(b1-3)Gal(b1-4)GlcNAc
Summary of the method: as §1

[49] = target: Kdn(a2-3)Gal(b1-3)GalNAc
Summary of the method: as §1

[50] = target: Kdn(a2-3)Gal(b1-3)GlcNAc
Summary of the method: as §1

[51] = target: Kdn(a2-3)Gal(b1-4)Glc
Summary of the method: as §1

[52] = target: Kdn(a2-3)Gal(b1-4)GlcNAc
Summary of the method: as §1

[53] = target: Kdn(a2-3)Gal(b1-4)[Fuc(a1-3)]GlcNAc
Summary of the method: as §1

[54] = target: Kdn(a2-6)Gal(b1-4)GlcNAc
Summary of the method: as §1

[55] = target: Man(a1-2)Man(a1-2)Man(a1-3)Man
Summary of the method: as §1

[56] = target: Man(a1-2)Man(a1-2)Man(a1-6)[Man(a1-3)]Man
Summary of the method: as §1

[57] = target: Man(a1-2)Man(a1-3)Man
Summary of the method: as §1

[58] = target: Man(a1-2)Man(a1-3)[Man(a1-2)Man(a1-6)]Man
Summary of the method: as §1

[59] = target: Man(a1-2)Man(a1-3)[Man(a1-2)Man(a1-6)]Man(a1-6)[Man(a1-2)Man(a1-2)Man(a1-3)]Man
Summary of the method: as §1

[60] = target: Man(a1-2)Man(a1-3)[Man(a1-2)Man(a1-6)]Man(a1-6)[Man(a1-2)Man(a1-2)Man(a1-3)]Man(b1-4)GlcNAc(b1-4)GlcNAc
Summary of the method: as §1

B1: NanI (Corynebacterium diphtheriae), C6JSW7 (protein)
chain: MTNTLESNPMTTTTGALTITFATTCDGPLAHIPHHLDLNIIHGRIQGTTAHRRIDAEDPDGLDDGLPHHLCLSVDTTGTHLFIDGYEAFSTTQTEWFDTSELTLNPHGDLTIIDHQILNHAPTPRQARNLAPAAEPLVWFAGSHLSTRDTQRISHLTHGSLRLLMKTRGTGQGGVAFQAHTINGDLTLEIIDGTLIFSVRCHDEDYVRITAPGRWDDGQIYDVVIVCGRGATDIYVDGQQLIHSPGAAFFNDLSGELSVHIGTAASGVRLFGEVQSGMIYPHVFNHHQVQRLATVEPIATQALFDCLLDGAQSYRIPSLITTDSGVIIAGADKRVSIANDAPNDIDFVLRRSVDGGRTWQPPRTILQLPDTACVTDSVLLQDHTTGRIFAFLDQFPAGIGQPNAAFGTGFDADGNRIGHFADGSTCTMPREVDQLEASFFSDPHTAPPGIVFQHPSCHLWMLTSDDDGLTWSTPRDLTPDVKEEWMRFCGTSPGNGIQLQRDTHAGRLLIPMYYTKGDQFFAAALYSDDHGDTWHRGESPDLEMYESTLVEASDGSVLLWARNQHPSGAVAHARSTDGGHSWSQVTFNPNVPEIFSQPNALRVTNPDGIIFANASQLLPFRGRGVLRMSTNDGASWQHNRVFNPRHYVYQCMTQLPDGSIGLLWEREMQGLFFSIIPMTWIMQGYAL
glycan array binding signal (z-score) [1]: -0.739 | glycan array binding signal (z-score) [2]: -0.173 | glycan array binding signal (z-score) [3]: -0.547 | glycan array binding signal (z-score) [4]: -0.462 | glycan array binding signal (z-score) [5]: -0.017 | glycan array binding signal (z-score) [6]: -0.612 | glycan array binding signal (z-score) [7]: -0.717 | glycan array binding signal (z-score) [8]: 0.643 | glycan array binding signal (z-score) [9]: -0.388 | glycan array binding signal (z-score) [10]: 0.31 | glycan array binding signal (z-score) [11]: -0.55 | glycan array binding signal (z-score) [12]: -0.205 | glycan array binding signal (z-score) [13]: 1.09 | glycan array binding signal (z-score) [14]: -0.096 | glycan array binding signal (z-score) [15]: -0.183 | glycan array binding signal (z-score) [16]: 4.05 | glycan array binding signal (z-score) [17]: -0.152 | glycan array binding signal (z-score) [18]: 9.15 | glycan array binding signal (z-score) [19]: -0.234 | glycan array binding signal (z-score) [20]: 0.39 | glycan array binding signal (z-score) [21]: -0.109 | glycan array binding signal (z-score) [22]: 1.02 | glycan array binding signal (z-score) [23]: -0.236 | glycan array binding signal (z-score) [24]: -0.014 | glycan array binding signal (z-score) [25]: -0.8 | glycan array binding signal (z-score) [26]: -0.983 | glycan array binding signal (z-score) [27]: -0.496 | glycan array binding signal (z-score) [28]: -0.608 | glycan array binding signal (z-score) [29]: -0.248 | glycan array binding signal (z-score) [30]: 2.79 | glycan array binding signal (z-score) [31]: 0.156 | glycan array binding signal (z-score) [32]: -0.35 | glycan array binding signal (z-score) [33]: -0.274 | glycan array binding signal (z-score) [34]: -0.645 | glycan array binding signal (z-score) [35]: -0.474 | glycan array binding signal (z-score) [36]: -0.25 | glycan array binding signal (z-score) [37]: -0.88 | glycan array binding signal (z-score) [38]: -0.477 | glycan array binding signal (z-score) [39]: 0.129 | glycan array binding signal (z-score) [40]: -0.681 | glycan array binding signal (z-score) [41]: -0.532 | glycan array binding signal (z-score) [42]: -1.05 | glycan array binding signal (z-score) [43]: -0.209 | glycan array binding signal (z-score) [44]: 0.745 | glycan array binding signal (z-score) [45]: -0.307 | glycan array binding signal (z-score) [46]: 0.642 | glycan array binding signal (z-score) [47]: -1.09 | glycan array binding signal (z-score) [48]: 0.261 | glycan array binding signal (z-score) [49]: 0.118 | glycan array binding signal (z-score) [50]: 0.075 | glycan array binding signal (z-score) [51]: 0.245 | glycan array binding signal (z-score) [52]: -0.702 | glycan array binding signal (z-score) [53]: -0.642 | glycan array binding signal (z-score) [54]: 0.008 | glycan array binding signal (z-score) [55]: -0.488 | glycan array binding signal (z-score) [56]: -0.448 | glycan array binding signal (z-score) [57]: -0.381 | glycan array binding signal (z-score) [58]: 1.3 | glycan array binding signal (z-score) [59]: 0.157 | glycan array binding signal (z-score) [60]: -0.074
